Data reported in the supplement of paper PMC11417369.
± gives the standard deviation of the averaged measurements. Some of the results follow.

test system: PfAP2-I AP2 domain 3 (GST-tagged); assay: gcPBM binding intensity (ln(normalized median fluorescence intensity)); higher = stronger DNA binding
Method in brief: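 After 1 h on an Agilent 4 × 180k array of primer-extended double-stranded 36-bp intergenic genomic probes and negative controls, bound GST-tagged P. falciparum DNA-binding domains were detected with Alexa488 anti-GST antibody and scanned at 488 nm. The domains had been expressed in E. coli, and binding took place in 1× PBS with 1% milk, 0.2 mg/ml BSA, 0.5% salmon testes DNA and 0.03% Triton X-100. Binding intensity is the highest Masliner-normalised natural-log median intensity across replicate spots of either probe orientation.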

Sequence | gcPBM binding intensity (ln)
AAAAAAATTAATGTGTGTACTTAGATATAATGTTTA [XGTACX_site8862] | 7.66 ± 0.35
TTACAAATATTATAAAGTACAAACCAGTAGATTTTG [XGTACX_site2272] | 7.49 ± 0.54
TCATTCTAAATATAAACACACATAAATATGTACATT [CACACA_site7555] | 7.68 ± 0.4
TTTTTTTTTTTTAAAAGTACATAGTAGTAATTATAG [XGTACX_site4232] | 7.92 ± 0.42
TATTTTTTTTTTTTTTTTTTTACCTTTCCACTCAAA [CACACA_negctrl_site1454] | 7.58 ± 0.43
TCTAGGAAAAATTATAGTACACAAAAATATATATAT [XGTACX_site4136] | 8.89 ± 0.38
ATATATACATATACTATATCTTTTATTTTTATTATT [GTGCAC_negctrl_site127] | 7.61 ± 0.57
TTATATGCACTTTTTGCACACGTATGAATAACAAAA [CACACA_site1811] | 10.8 ± 0.86
TATGACACTTTGAAGGGTACATGCAGAAAAAAAAAA [XGTACX_site569] | 8.41 ± 0.81
TATATATATTAAAAACGTACAAAATAAGAATTAATT [XGTACX_site5979] | 8.06 ± 0.73
GGATATATTTTATGTACACACACATATAAGGGATTA [CACACA_site4181] | 8.02 ± 0.3
TATAAATAAATAAACACACACAAATAAAATAAAAAA [CACACA_site7623] | 7.88 ± 0.67
TTTTTTTGCCATATTACACACACACCGGTAAACCCC [CACACA_site8475] | 8.48 ± 0.39
ACATATTAGGGTCATGAACACACAAAAAAAAAAAAA [CACACA_site8218] | 7.96 ± 0.57
TTTATTTATTTATTCTTATTTTTTTTTTTTTTTACT [CACACA_negctrl_site257] | 7.42 ± 0.74
AATTCAGCTTTACAACGTACACAATCATATGTCTAT [XGTACX_site8113] | 7.96 ± 0.67
ATGAAGATTTAAAAATGTACATATGATCTATGTCCT [XGTACX_site8409] | 7.43 ± 0.55
TAATACATAAATGATTGTACATAAGAATTGAAACAT [XGTACX_site4583] | 7.84 ± 0.64
ACATACGAAAATTGGAAGGATAGATAAAAAGAAAAT [CACACA_negctrl_site51] | 7.82 ± 0.88

Sequence | gcPBM binding intensity (ln)
GTACAGATGTAGTATGCATGTAATTATATATAAATT [TGCATGCA_site292] | 8.07 ± 0.69
ATATAAAAAAGAGGGAGTACTTGTAACAAAATAATA [XGTACX_site8679] | 8.03 ± 0.54
ACATGTTCATAATTTTGTACATATTTTTATGAACAT [XGTACX_site3976] | 7.94 ± 0.41
ACGTAGTAGGTATTATGTACATATTTATAAGTATAA [XGTACX_site7336] | 7.84 ± 0.49
TAACTACTAGAAAAAACACACAAAAAGTAAATATAT [CACACA_site2740] | 7.79 ± 0.74
TTCCCATGTAATATTAAACACACACCCATATAACAC [CACACA_site7905] | 8.96 ± 0.11
ATTCTAATTACATATACACACAAAGGTTCATAACAA [CACACA_site3076] | 7.88 ± 0.54
TATATAAATGTATACACACACATATAAATATAAATA [CACACA_site6751] | 7.68 ± 0.33
ATAAACAGATCATATACATGCATATATGTAGAATAA [TGCATGCA_site157] | 7.68 ± 0.72
TGTTTAACATTTATATGTACATATATTCACATATTA [XGTACX_site342] | 7.92 ± 0.49
TGATTTTTTTTTTTTTTTTTTTTTTTTTTAGTTTGC [CACACA_negctrl_site1057] | 7.62 ± 0.28
TAAAATATAAGACACACACACATATATTTATATATC [CACACA_site6248] | 7.94 ± 0.58
TACCAAATCACCCCTTGTACCCATTTTAAAATTTTC [XGTACX_site396] | 8.26 ± 0.59
TTATGTTATAAATACACACACAAAAGAAAAAAAAAA [CACACA_site7414] | 7.98 ± 0.62
TCCCATAATATTAGTAGTACTATTAATATTTTCAGG [XGTACX_site4925] | 7.51 ± 0.45
TTCTCTATAAATGCTGCACACACATTTAATTATTTA [CACACA_site8828] | 8.98 ± 0.34
ATTTCTTTTTTTTCTTGTACACATATTAAATTTATG [XGTACX_site734] | 8.22 ± 0.2
TCTAAACAAATTAATAAAATAAGTATTCAAAATTAT [CACACA_negctrl_site731] | 7.4 ± 0.67
AATATTTATTTTTTTGCACACATATTTTACATTTTA [CACACA_site3182] | 9.61 ± 0.22

Sequence | gcPBM binding intensity (ln)
GTAAAATTTCGGATTTGTACACATGGCTATGAAAAA [XGTACX_site939] | 8.01 ± 0.67
AAAAAGCAGGATTATACACACAAATATTTATATGTT [CACACA_site6634] | 7.51 ± 0.53
GCGTAGTTCGGAAGGGTGCTTTTTTGTTAATAAAAA [GTGCAC_site9592] | 8.97 ± 0.28
TATAAACAGACGAAAACACACATATGTAAATATATA [CACACA_site4428] | 7.67 ± 0.66
ATAAAAATAATATCATGTACATATGTGTATTGTATT [XGTACX_site1768] | 7.89 ± 0.48
TACAAAAAGTTATACACACACGTACCTATAAATAGA [CACACA_site6571] | 7.81 ± 0.33
TATTTCTTTTGGTTGGTGCATAAAATAATACAATAT [GTGCAC_site9916] | 11.2 ± 0.59
CAGACCTCTTTGTCATGTACATAAAAAAATAAAGAA [XGTACX_site7887] | 8.21 ± 0.49
ACGAATTAAATGGATTAATATATATATGTATATTTA [CACACA_negctrl_site1512] | 7.38 ± 0.3
TTAAATACTTTTCGAAGTACATTATATATATAATAT [XGTACX_site7530] | 7.63 ± 0.28
CGCAACACTATTTGGGTGCTCTTCAAAAAAAAAAAA [GTGCAC_site9598] | 9.25 ± 0.34
AGAATATATATAATAGTGCAATGTACAATGAACAAA [GTGCAC_site9577] | 9.42 ± 0.042
TCCATTCTATTTTTTACACACGTATGTAAATATTAT [CACACA_site2686] | 7.96 ± 0.49
ATTTGCTTTTATTTTACACACTTGCTCCTGTTGTAC [CACACA_site1088] | 8.29 ± 1
AAAAAAAAATATATTGCACACCTCTCAATAAAAAAA [CACACA_site172] | 10.3 ± 0.43
CGACTTTTAAAATATACACACATATATATATATATA [CACACA_site825] | 9.47 ± 0.46
ATAAATGAAGATAAATTAAAAAAAAAAAAAAAAAAA [CACACA_negctrl_site992] | 8.06 ± 0.54
GAATGTATTCATAAATGTACTTATAATATTATAATA [XGTACX_site3466] | 7.74 ± 0.49
